{"source": "the supplement of paper PMC8728848", "binders": {"B1": {"name": "CC1G-10077 (Coprinopsis cinerea), A8NDT7 (protein)", "chain": "MALNEGVYWIRNSRFTNKVLDLDAANVAKGTSILDFNEHGTFNENHNQLWIVERFQSRDTYLIRSVHSNLVLDLSQGLSANGTPILCWTQHGGTNQQWRIEWVKDDNKTPLYRIVSVATGTAISHNEDDSSAYTVAWSVDDGPKQLWSFDPFVTPLLYRLRVKSTSRVLDLAAASADNGTLALAWEQHTAITKRNQLWWLPYRSGAEEYTIQCLETSTVADLSGGNSGNGTPIYGWQSHGGRNQQWKFEPTSDSGDYYHIKNVEGGSVMDAYMNDSQKRVGGWSNNGGDNQKWLLDPLPSPGPGWVLIQNGGTGKFLCSTPSGDIGTADGPETVYDYSVQWRFIQREYTGVYHVVNRATGAYLRQIGTSMPSIGLAEENDDELKDWWMLETYDNSEIGLASIISRWTGNVLDHYGGVSVQALDNNTENSYRSWAIIPARDWLTSFSLVNGQGGLCLAAQYAREETRLSTTANVNDFHAQWVFRKPSGSSGYTIQNKYNNHYVGGTSARWELVVCCNKYFGIRNTSTQKYLAIEDGQVTFQDQDMTDRKQCWELCSGRATDTSGNDYDLIYMDDDLLEVMIPWVGDKQGDLKHYIEKRATKKPPKDKGGWQLPAAGLIKKPKFNDIRQLLQELIEQWEWDVVNEEREQIQTLVSIDEAEARRLLGRRPHPDIVAAYQRSRSSTLFRIDRQGYFNIAGDRYVNIQGQYGDDSYFHIALPVGVRFGREQIRRFLRDSLDRSTSVTITPTTCKPPSGGPDYNRDPDSDGDNSWIKWTIAVVGTSAIKHSEL"}}, "experiment_in_all_cases": "glycan array binding signal (z-score within array); higher = stronger binding", "conditions_in_all_cases": "glycan notation: IUPAC condensed, linker removed", "key": {"[1]": {"molecular_target": "Gal(b1-4)GalNAc(b1-3)[Fuc(a1-2)]Gal(b1-4)GlcNAc", "outline": "(§1)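 Columns mapping to the same glycan were averaged after glycan names were converted to IUPAC-condensed notation. The data come from 3228 arrays in the Consortium for Functional Glycomics database, limited to those with an available protein sequence. Binding is reported as a within-array Z-score averaged across arrays of one protein sequence and across linkers.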"}, "[2]": {"molecular_target": "Gal(b1-4)Glc", "outline": "as §1"}, "[3]": {"molecular_target": "Gal(b1-4)Glc6S", "outline": "as §1"}, "[4]": {"molecular_target": "Gal(b1-4)GlcNAc", "outline": "as §1"}, "[5]": {"molecular_target": "Gal(b1-4)GlcNAc(a1-6)Gal(b1-4)GlcNAc", "outline": "as §1"}, "[6]": {"molecular_target": "Gal(b1-4)GlcNAc(b1-2)Man", "outline": "as §1"}, "[7]": {"molecular_target": "Gal(b1-4)GlcNAc(b1-2)Man(a1-3)Man(b1-4)GlcNAc(b1-4)GlcNAc", "outline": "as §1"}, "[8]": {"molecular_target": "Gal(b1-4)GlcNAc(b1-2)Man(a1-3)[Gal(b1-4)GlcNAc(b1-2)Man(a1-6)]Man(b1-4)GlcNAc(b1-4)GlcNAc", "outline": "as §1"}, "[9]": {"molecular_target": "Gal(b1-4)GlcNAc(b1-2)Man(a1-3)[Gal(b1-4)GlcNAc(b1-2)Man(a1-6)]Man(b1-4)GlcNAc(b1-4)[Fuc(a1-6)]GlcNAc", "outline": "as §1"}, "[10]": {"molecular_target": "Gal(b1-4)GlcNAc(b1-2)Man(a1-3)[Gal(b1-4)GlcNAc(b1-2)Man(a1-6)][Gal(b1-4)GlcNAc(b1-4)]Man(b1-4)GlcNAc(b1-4)[Fuc(a1-6)]GlcNAc", "outline": "as §1"}, "[11]": {"molecular_target": "Gal(b1-4)GlcNAc(b1-2)Man(a1-3)[Gal(b1-4)GlcNAc(b1-2)Man(a1-6)][GlcNAc(b1-4)]Man(b1-4)GlcNAc(b1-4)[Fuc(a1-6)]GlcNAc", "outline": "as §1"}, "[12]": {"molecular_target": "Gal(b1-4)GlcNAc(b1-2)Man(a1-3)[GlcNAc(b1-2)Man(a1-6)]Man(b1-4)GlcNAc(b1-4)GlcNAc", "outline": "as §1"}, "[13]": {"molecular_target": "Gal(b1-4)GlcNAc(b1-2)Man(a1-3)[GlcNAc(b1-4)][Gal(b1-4)GlcNAc(b1-2)Man(a1-6)]Man(b1-4)GlcNAc(b1-4)GlcNAc", "outline": "as §1"}, "[14]": {"molecular_target": "Gal(b1-4)GlcNAc(b1-2)Man(a1-3)[Man(a1-6)]Man(b1-4)GlcNAc(b1-4)GlcNAc", "outline": "as §1"}, "[15]": {"molecular_target": "Gal(b1-4)GlcNAc(b1-2)Man(a1-6)Man(b1-4)GlcNAc(b1-4)GlcNAc", "outline": "as §1"}, "[16]": {"molecular_target": "Gal(b1-4)GlcNAc(b1-2)Man(a1-6)[GlcNAc(b1-2)Man(a1-3)]Man(b1-4)GlcNAc(b1-4)GlcNAc", "outline": "as §1"}, "[17]": {"molecular_target": "Gal(b1-4)GlcNAc(b1-2)Man(a1-6)[Man(a1-3)]Man(b1-4)GlcNAc(b1-4)GlcNAc", "outline": "as §1"}, "[18]": {"molecular_target": "Gal(b1-4)GlcNAc(b1-2)[Gal(b1-4)GlcNAc(b1-4)]Man(a1-3)[Gal(b1-4)GlcNAc(b1-2)Man(a1-6)]Man(b1-4)GlcNAc(b1-4)GlcNAc", "outline": "as §1"}, "[19]": {"molecular_target": "Gal(b1-4)GlcNAc(b1-2)[Gal(b1-4)GlcNAc(b1-4)]Man(a1-3)[Gal(b1-4)GlcNAc(b1-2)[Gal(b1-4)GlcNAc(b1-6)]Man(a1-6)]Man(b1-4)GlcNAc(b1-4)GlcNAc", "outline": "as §1"}, "[20]": {"molecular_target": "Gal(b1-4)GlcNAc(b1-2)[Gal(b1-4)GlcNAc(b1-4)]Man(a1-3)[GlcNAc(b1-4)][Gal(b1-4)GlcNAc(b1-2)Man(a1-6)]Man(b1-4)GlcNAc(b1-4)GlcNAc", "outline": "as §1"}, "[21]": {"molecular_target": "Gal(b1-4)GlcNAc(b1-2)[Gal(b1-4)GlcNAc(b1-4)]Man(a1-3)[GlcNAc(b1-4)][Gal(b1-4)GlcNAc(b1-2)[Gal(b1-4)GlcNAc(b1-6)]Man(a1-6)]Man(b1-4)GlcNAc(b1-4)GlcNAc", "outline": "as §1"}, "[22]": {"molecular_target": "Gal(b1-4)GlcNAc(b1-2)[Gal(b1-4)GlcNAc(b1-6)]Man(a1-6)[Gal(b1-4)GlcNAc(b1-2)Man(a1-3)]Man(b1-4)GlcNAc(b1-4)GlcNAc", "outline": "as §1"}, "[23]": {"molecular_target": "Gal(b1-4)GlcNAc(b1-2)[Gal(b1-4)GlcNAc(b1-6)]Man(a1-6)[Gal(b1-4)GlcNAc(b1-2)Man(a1-3)]Man(b1-4)GlcNAc(b1-4)[Fuc(a1-6)]GlcNAc", "outline": "as §1"}, "[24]": {"molecular_target": "Gal(b1-4)GlcNAc(b1-2)[Gal(b1-4)GlcNAc(b1-6)]Man(a1-6)[GlcNAc(b1-4)][Gal(b1-4)GlcNAc(b1-2)Man(a1-3)]Man(b1-4)GlcNAc(b1-4)GlcNAc", "outline": "as §1"}, "[25]": {"molecular_target": "Gal(b1-4)GlcNAc(b1-2)[Gal(b1-4)GlcNAc(b1-6)]Man(a1-6)[GlcNAc(b1-4)][Gal(b1-4)GlcNAc(b1-2)[Gal(b1-4)GlcNAc(b1-4)]Man(a1-3)]Man(b1-4)GlcNAc(b1-4)[Fuc(a1-6)]GlcNAc", "outline": "as §1"}, "[26]": {"molecular_target": "Gal(b1-4)GlcNAc(b1-3)Gal(b1-3)GalNAc", "outline": "as §1"}, "[27]": {"molecular_target": "Gal(b1-4)GlcNAc(b1-3)Gal(b1-3)GlcNAc", "outline": "as §1"}, "[28]": {"molecular_target": "Gal(b1-4)GlcNAc(b1-3)Gal(b1-4)Glc", "outline": "as §1"}, "[29]": {"molecular_target": "Gal(b1-4)GlcNAc(b1-3)Gal(b1-4)GlcNAc", "outline": "as §1"}, "[30]": {"molecular_target": "Gal(b1-4)GlcNAc(b1-3)Gal(b1-4)GlcNAc(b1-2)Man(a1-3)[Gal(b1-4)GlcNAc(b1-3)Gal(b1-4)GlcNAc(b1-2)Man(a1-6)]Man(b1-4)GlcNAc(b1-4)GlcNAc", "outline": "as §1"}}, "note": "This is one part of the list."}
{"binder": "B1", "values": [{"measurement": "glycan array binding signal (z-score)", "setting": "[1]", "value": 0.111}, {"measurement": "glycan array binding signal (z-score)", "setting": "[2]", "value": -0.083}, {"measurement": "glycan array binding signal (z-score)", "setting": "[3]", "value": -0.024}, {"measurement": "glycan array binding signal (z-score)", "setting": "[4]", "value": 0.829}, {"measurement": "glycan array binding signal (z-score)", "setting": "[5]", "value": 3.26}, {"measurement": "glycan array binding signal (z-score)", "setting": "[6]", "value": -0.331}, {"measurement": "glycan array binding signal (z-score)", "setting": "[7]", "value": 1.15}, {"measurement": "glycan array binding signal (z-score)", "setting": "[8]", "value": 2.13}, {"measurement": "glycan array binding signal (z-score)", "setting": "[9]", "value": 0.665}, {"measurement": "glycan array binding signal (z-score)", "setting": "[10]", "value": 2.17}, {"measurement": "glycan array binding signal (z-score)", "setting": "[11]", "value": 1.13}, {"measurement": "glycan array binding signal (z-score)", "setting": "[12]", "value": 2.09}, {"measurement": "glycan array binding signal (z-score)", "setting": "[13]", "value": 0.424}, {"measurement": "glycan array binding signal (z-score)", "setting": "[14]", "value": 1.52}, {"measurement": "glycan array binding signal (z-score)", "setting": "[15]", "value": 0.348}, {"measurement": "glycan array binding signal (z-score)", "setting": "[16]", "value": 3.12}, {"measurement": "glycan array binding signal (z-score)", "setting": "[17]", "value": 0.327}, {"measurement": "glycan array binding signal (z-score)", "setting": "[18]", "value": 2.13}, {"measurement": "glycan array binding signal (z-score)", "setting": "[19]", "value": 1.52}, {"measurement": "glycan array binding signal (z-score)", "setting": "[20]", "value": 2.13}, {"measurement": "glycan array binding signal (z-score)", "setting": "[21]", "value": 2.55}, {"measurement": "glycan array binding signal (z-score)", "setting": "[22]", "value": 2.01}, {"measurement": "glycan array binding signal (z-score)", "setting": "[23]", "value": 2.14}, {"measurement": "glycan array binding signal (z-score)", "setting": "[24]", "value": 1.35}, {"measurement": "glycan array binding signal (z-score)", "setting": "[25]", "value": 1.76}, {"measurement": "glycan array binding signal (z-score)", "setting": "[26]", "value": 0.413}, {"measurement": "glycan array binding signal (z-score)", "setting": "[27]", "value": 0.333}, {"measurement": "glycan array binding signal (z-score)", "setting": "[28]", "value": 1.01}, {"measurement": "glycan array binding signal (z-score)", "setting": "[29]", "value": 1.17}, {"measurement": "glycan array binding signal (z-score)", "setting": "[30]", "value": 1.06}]}
